The supplement of paper PMC7125110
± gives the standard error. Variants at the background level are over-represented here.

B1: glmS ribozyme (parent)
chain: AUAAAAGCGCCAGAACUACAGAAAUGUAGUUGACGAGGAGGAGGUUUAUCGAAUUUUCGGCGGAUGCCUCCAAA

What was measured:
Conditions in all cases: with glucosamine-6-phosphate
[1] = variants of: B1; assay: self-cleavage kobs at 640 uM GlcN6P; higher = faster cleavage; RNA array
Procedure, shortened: (§1)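 Glucosamine-6-phosphate (40 μM to 10 mM) in HEPES/KCl/Mg(OAc)2 buffer was flowed over sequenced MiSeq chips, and tiles were imaged over ~14 h. Barcoded ribozyme variants there had been transcribed in situ by E. coli RNA polymerase and were tracked through a hybridised Cy3 probe at 37 °C. One- or two-exponential decay fits to per-tile medians, normalised to baseline and to non-cleaving reference variants, gave kobs. kcat and KM came from weighted Michaelis–Menten fits across concentrations.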

[2] = variants of: B1; assay: self-cleavage kobs at 160 uM GlcN6P; higher = faster cleavage; RNA array
Procedure, shortened: as §1

[3] = variants of: B1; assay: self-cleavage kobs at 2500 uM GlcN6P; higher = faster cleavage; RNA array
Procedure, shortened: as §1

[4] = variants of: B1; assay: self-cleavage kobs at 10000 uM GlcN6P; higher = faster cleavage; RNA array
Procedure, shortened: as §1

[5] = variants of: B1; assay: self-cleavage kobs at 40 uM GlcN6P; higher = faster cleavage; RNA array
Procedure, shortened: as §1

Variant	self-cleavage kobs at 640 uM GlcN6P [1]	self-cleavage kobs at 160 uM GlcN6P [2]	self-cleavage kobs at 2500 uM GlcN6P [3]	self-cleavage kobs at 10000 uM GlcN6P [4]	self-cleavage kobs at 40 uM GlcN6P [5]
G7U G29A C58A	< 1e-05 s⁻¹	–	–	–	–
A6G G13U U30C A52G	< 1e-05 s⁻¹	< 1e-05 s⁻¹	< 1e-05 s⁻¹	–	–
C8A U30A G32U C34U G35A U56A G66A	< 1e-05 s⁻¹	–	–	< 1e-05 s⁻¹	–
C8U U31G C34U U47A	< 1e-05 s⁻¹	–	–	–	–
A6U U31A G35U A42U G62U	< 1e-05 s⁻¹	–	< 1e-05 s⁻¹	–	–
A6C G13U G29U C67U	< 1e-05 s⁻¹	–	–	–	–
A6C C16A U31C	< 1e-05 s⁻¹	–	< 1e-05 s⁻¹	–	–
C8A A33U U55G	< 1e-05 s⁻¹	–	–	< 1e-05 s⁻¹	–
G7U U46A C68U	< 1e-05 s⁻¹	–	–	–	–
G7C C58G	< 1e-05 s⁻¹	–	–	–	–
A6G G7C A15U	< 1e-05 s⁻¹	< 1e-05 s⁻¹	< 1e-05 s⁻¹	< 1e-05 s⁻¹	–
A64C U65G	–	–	–	4.42e-05 ± 1.1e-05 s⁻¹	< 1e-05 s⁻¹
A6G G32U G51A	< 1e-05 s⁻¹	–	< 1e-05 s⁻¹	–	–
A6G A14C A42G G60C	< 1e-05 s⁻¹	< 1e-05 s⁻¹	–	< 1e-05 s⁻¹	–
A6C G9U A39G G66U C71A	< 1e-05 s⁻¹	–	< 1e-05 s⁻¹	–	–
A6C G66U C70U	< 1e-05 s⁻¹	–	< 1e-05 s⁻¹	–	–
A6G G13C G66U	< 1e-05 s⁻¹	–	< 1e-05 s⁻¹	< 1e-05 s⁻¹	–
A6G A52U G66A	< 1e-05 s⁻¹	< 1e-05 s⁻¹	< 1e-05 s⁻¹	–	–
G62U A64G	< 1e-05 s⁻¹	< 1e-05 s⁻¹	–	–	< 1e-05 s⁻¹

Variant	self-cleavage kobs at 640 uM GlcN6P [1]	self-cleavage kobs at 160 uM GlcN6P [2]	self-cleavage kobs at 2500 uM GlcN6P [3]	self-cleavage kobs at 10000 uM GlcN6P [4]	self-cleavage kobs at 40 uM GlcN6P [5]
A6U C11G A14C G41U	< 1e-05 s⁻¹	–	–	–	–
G7U G44A C71U	< 1e-05 s⁻¹	–	< 1e-05 s⁻¹	–	–
G7U G37A A48C	< 1e-05 s⁻¹	< 1e-05 s⁻¹	< 1e-05 s⁻¹	< 1e-05 s⁻¹	–
A6U A36C G51C	< 1e-05 s⁻¹	–	–	–	–
C8G G60C G63C C71A	< 1e-05 s⁻¹	–	< 1e-05 s⁻¹	–	–
C8G G32C C71U	< 1e-05 s⁻¹	–	–	–	–
A64U U65C	–	< 1e-05 s⁻¹	–	–	< 1e-05 s⁻¹
A64U U65G	–	< 1e-05 s⁻¹	–	–	< 1e-05 s⁻¹
G7C C8U	< 1e-05 s⁻¹	–	–	–	–
A6U G32C C67G	< 1e-05 s⁻¹	–	< 1e-05 s⁻¹	–	–
C8A U31C A39U A53G G62U C67U	< 1e-05 s⁻¹	–	< 1e-05 s⁻¹	–	–
G7U C34G A42G G62C	< 1e-05 s⁻¹	–	–	–	–
G7A C67G U69A	< 1e-05 s⁻¹	–	< 1e-05 s⁻¹	< 1e-05 s⁻¹	–
G7A C10A C11U A36C A39G	< 1e-05 s⁻¹	–	< 1e-05 s⁻¹	–	–
G7U G32U A52G A64U	< 1e-05 s⁻¹	–	< 1e-05 s⁻¹	–	–
G7A A14C U30G A36C G38U A52G C71U	< 1e-05 s⁻¹	–	–	–	–
C8G A14U G40C G63A	< 1e-05 s⁻¹	–	–	< 1e-05 s⁻¹	–
G9A C10A U30C	< 1e-05 s⁻¹	–	< 1e-05 s⁻¹	–	–
C8U C68U	< 1e-05 s⁻¹	< 1e-05 s⁻¹	< 1e-05 s⁻¹	–	–

Variant	self-cleavage kobs at 640 uM GlcN6P [1]	self-cleavage kobs at 160 uM GlcN6P [2]	self-cleavage kobs at 2500 uM GlcN6P [3]	self-cleavage kobs at 10000 uM GlcN6P [4]	self-cleavage kobs at 40 uM GlcN6P [5]
C8G G9C U55G U69G	< 1e-05 s⁻¹	< 1e-05 s⁻¹	–	–	–
C8G G13C A33G	< 1e-05 s⁻¹	< 1e-05 s⁻¹	< 1e-05 s⁻¹	–	–
G7U A52U C61U	< 1e-05 s⁻¹	–	–	–	–
C8U G37C U47G A53U G62C	< 1e-05 s⁻¹	< 1e-05 s⁻¹	< 1e-05 s⁻¹	–	–
C8G G32U	< 1e-05 s⁻¹	–	< 1e-05 s⁻¹	–	–
G9A C16G U30G A52C	< 1e-05 s⁻¹	–	< 1e-05 s⁻¹	–	–
G7A U45G C50U	< 1e-05 s⁻¹	–	< 1e-05 s⁻¹	–	–
A6U C16U	6.36e-05 ± 7.9e-06 s⁻¹	2.54e-05 ± 9.5e-06 s⁻¹	0.000118 ± 1.2e-05 s⁻¹	0.00021 ± 1.7e-05 s⁻¹	–
G7U G35A C68A	< 1e-05 s⁻¹	–	< 1e-05 s⁻¹	–	–
A6C G35A G63U	< 1e-05 s⁻¹	< 1e-05 s⁻¹	–	< 1e-05 s⁻¹	–
C8U G35U A39U C70U	< 1e-05 s⁻¹	–	< 1e-05 s⁻¹	–	–
G7A A12G G35U	< 1e-05 s⁻¹	< 1e-05 s⁻¹	–	–	–
C67G C70A C71U	–	–	–	–	< 1e-05 s⁻¹
C8U G9C	< 1e-05 s⁻¹	< 1e-05 s⁻¹	< 1e-05 s⁻¹	< 1e-05 s⁻¹	–
G7C G35A A42G	< 1e-05 s⁻¹	–	< 1e-05 s⁻¹	–	–
G7A C16U G62A U65G C71U	< 1e-05 s⁻¹	–	–	–	–
G7U U30G G63U	< 1e-05 s⁻¹	–	–	–	–
G9C A12C C19A G51U U54G G63C C70G	< 1e-05 s⁻¹	–	< 1e-05 s⁻¹	–	–
G7U C11U U45G C71A	< 1e-05 s⁻¹	–	–	–	–
